# Measurements as given in the supplement of paper PMC3334620.
# In all, about 33,000 sequences were measured (“E-score (-0.5 to 0.5)”: median about -0.054, highest 2% from about 0.39 on). This is one part of the list.
# Target: Ylr278c (UniProt Q05854)
# Assay: PBM E-score (8-mer binding enrichment) (E-score (-0.5 to 0.5)); higher = stronger / more preferred TF binding; most listed sequences are background and not binding sites
# Settings: protein concentration: 200 nM; construct: GST-DNA-binding domain
# Method in brief: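 For each ungapped eight-base word taken together with its reverse complement, the Universal PBM Analysis Suite assigned an E-score. Binding data came from GST-tagged yeast transcription factors, applied at about 100-200 nM, on universal all-10-mer Agilent arrays made double-stranded by primer extension. Fluorescent anti-GST marked bound protein, and scans were normalised with masliner.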
row,Sequence,PBM E-score
1,AACTTGTG,0.0109
2,AGAATCTA,-0.14
3,CGTCCAAA,0.14
4,AAACGATA,-0.158
5,ATTTTAGG,-0.0416
6,CGGAGGAC,0.423
7,AACGGGTA,-0.0232
8,AAAAGTAG,-0.211
9,CACCGACA,0.248
10,AGAGTGAG,-0.117
11,ACTTGTCA,0.00844
12,AGCAAGAC,-0.0712
13,ACACGCCG,0.305
14,GTGCCCGA,0.0619
15,AAGTACTG,-0.235
16,AAACACAA,-0.164
17,AGACGCGA,-0.0461
18,CTTGCGTA,-0.183
19,ACATCCCG,0.315
20,CAGGTGAC,-0.184
21,CGGTCCTC,0.0743
22,CGAAACTA,0.0933
23,GGTCATGA,-0.108
24,AGTGCAAT,-0.142
25,CCTCGCGC,-0.082

row,Sequence,PBM E-score
1,ATACCTGA,-0.132
2,CTCATAAA,-0.144
3,CCTAGACA,-0.107
4,CGATTTGC,0.165
5,ATCTAGAG,-0.214
6,ATCTATGA,-0.234
7,AGGCCCCG,0.133
8,AGAGCTCA,-0.177
9,ACCTCATA,-0.101
10,ATGTGTAG,0.0145
11,CTCGTGTA,-0.0712
12,GCGATCGC,0.223
13,GGAGGTAA,0.145
14,GGCTTGAC,-0.0657
15,ACAATGAA,-0.165
16,CGCTGTGA,-0.181
17,AGCCGGTA,0.352
18,CCCCCCAG,-0.315
19,GGGACAGA,-0.0933
20,GATTACAA,0.145
21,ATTGGTCG,0.0468
22,CGCGACGC,0.102
23,TCAAGCGA,-0.0408
24,CCGGCGCA,0.365
25,CAAGACAC,-0.00738

row,Sequence,PBM E-score
1,CGTACTCA,-0.0734
2,CAAAATTA,0.0959
3,CCCCAAGG,-0.161
4,CTGCTTCA,-0.303
5,CCAACTGA,-0.328
6,AAACATGT,0.0236
7,CGTCATAA,-0.0307
8,AAATCCAC,-0.124
9,GTTGCACA,-0.263
10,ATTCACAG,-0.265
11,ATGAGAGG,-0.0723
12,AGCCCGTA,-0.0821
13,ACGAAGAA,0.0444
14,AGAGCTTG,-0.259
15,GTACGATA,-0.34
16,AACGTTTA,-0.141
17,GCCACTCC,0.216
18,ACGGAATA,0.357
19,ACGCCGGA,0.432
20,CCCGTCGC,0.162
21,AAACACCC,0.0627
22,AGACTTTG,-0.283
23,AGGGGGGG,-0.452
24,ACTGCTAG,-0.314
25,AATTTTGA,0.0064

row,Sequence,PBM E-score
1,GATCAGTA,-0.00685
2,CCAAGGAA,-0.0674
3,CCCGTCGA,0.0362
4,GATAAAAA,0.0302
5,AAAGTGTC,0.0897
6,ACTATGGA,-0.127
7,ATATACTG,0.0334
8,ATTTTTTC,0.155
9,AGGCAAGC,-0.0705
10,CCAAGTAG,-0.329
11,CCTGGTCG,0.111
12,CGAGATTC,0.0465
13,CATGATAC,-0.0486
14,CTGGCTGC,-0.107
15,CGTCCCTA,-0.216
16,CGAATGAA,-0.0184
17,CTTTTGCC,0.093
18,GGACAGCA,-0.0659
19,GAGACCCC,0.0577
20,ATTTCCTG,0.0615
21,GCAGAAAC,-0.136
22,AGATCGCG,0.157
23,AAGTTACG,-0.0404
24,GACACGCA,0.0396
25,ACTAAAAG,0.121

row,Sequence,PBM E-score
1,GCTAGATA,-0.085
2,TATAGTCA,-0.256
3,GTATGGTA,-0.228
4,CCAGACTC,-0.0856
5,AAGCTGAG,-0.143
6,CTAAGAGA,-0.253
7,CGAGAACC,-0.0335
8,CCCCTAGG,-0.173
9,GAGAGCAC,-0.146
10,GACAGTAC,0.0964
11,GAATCTAC,-0.178
12,CTTAGTTC,0.00353
13,ACCGTTCT,-0.0784
14,AAGACGGC,-0.016
15,GAGTGCAA,0.0084
16,TCAAAGGA,-0.286
17,CGCAATGC,-0.0156
18,ACCACAGT,-0.146
19,ATGTTATG,-0.152
20,GTAGATAC,-0.233
21,CACCACTA,-0.012
22,CAGGACCC,0.00694
23,CGCAGTGA,-0.0535
24,ATTGTAAC,-0.107
25,CCAGGACG,-0.157

row,Sequence,PBM E-score
1,GCAGGTCC,0.0435
2,CCACGAAC,-0.0073
3,ACATGACG,-0.0913
4,CAGGGTAG,-0.0792
5,AGTCTACG,-0.143
6,AGCAACAC,-0.082
7,GGTCCACC,-0.0108
8,AGCTATCA,-0.107
9,GTCCAGAC,-0.317
10,GAAAGAAA,0.0399
11,GCTACTGA,-0.0378
12,CAGTGACC,-0.0854
13,CCTGCAAA,-0.137
14,AACGGTAA,0.0061
15,ACTCCCGA,0.217
16,GTAGGGTA,-0.0476
17,GTAAGCAC,-0.193
18,TACAAGAA,0.0729
19,CTAGTCAC,-0.113
20,CCGGGCTA,0.335
21,CACAGGTG,-0.132
22,CTGCCCAA,-0.161
23,GTTGACAA,0.0679
24,ATACGTGC,-0.0115
25,AACTACCC,-0.143

row,Sequence,PBM E-score
1,AAGGTAGA,-0.13
2,AGATTTAA,0.0218
3,ACACGCGC,0.138
4,CTAAGGCA,-0.0034
5,AATCGTAG,-0.197
6,CGTCCCAC,0.0936
7,GAGTTGCA,0.00691
8,CTCGAATA,-0.144
9,CCGCACAA,0.127
10,ATGCACCG,0.178
11,AAAGAATT,-0.0164
12,CAAAGAGG,-0.201
13,GATTCATA,-0.0792
14,AATCGACT,-0.262
15,CTAGGAGC,0.0194
16,CAATAGCC,-0.203
17,CCTCGCTC,-0.0394
18,TGGTTCAA,-0.118
19,ACGTGACT,-0.251
20,CCTAGCAA,-0.101
21,GACACGAC,-0.157
22,CGACCGCA,0.183
